These results are taken from publication PMC12040169 (PLOS Biology, 2025).

The other results are listed elsewhere or left out.

The test has as its system T1, C. trachomatis L2/434/Bu expressing GFP (CTL2-GFP).
T1 construct: L2/434/Bu GFP intracellular growth in HeLa cells
Also on record: species or system HeLa; C. trachomatis total inclusion area by high-content imaging, normalised to DMSO. To be noted: total inclusion area; 28.5 h, 10 µM; inhibitor. In a few lines: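 Following bulk GFP and resorufin fluorescence reads, infected cells were fixed, Hoechst-stained and imaged on a high-content platform. Inclusion total area and number per well served as growth proxies; nuclei counts indicated host viability. MICs were derived as for the fluorescence assay.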
With `Cc1ccc(S(=O)(=O)N2CCN(CCCc3ccccc3)CC2)cc1` [CBK263453], the “% of control remaining” value came out at 91.914. Regarding `CN(C)CC(=O)N1c2ccccc2CCc2ccc(NC(=O)c3ccccc3)cc21` [CBK261289C], the “% of control remaining” value is given as 105.554.

Take `CN(C)c1ccc(Nc2cc(-c3ccco3)ncn2)cc1` [CBK090946]: the “% of control remaining” value is listed as 115.489. In the case of `c1cc(CSc2nnc(-c3ccncc3)o2)ccn1` [CBK270235], the “% of control remaining” value is 90.1777. For the molecule `CN(C(=O)c1ccccn1)C1CCN(c2ncnc3ccccc23)CC1` [CBK305346], the “% of control remaining” value is 80.1149. The figure for `COc1ccc(C(=O)Nc2cccc(-c3nc4ccccc4[nH]3)c2)c(OC)c1` [CBK072662] is 72.116; for `Cc1ccc(Cl)cc1N1CCN(C(=O)COc2ccc(S(=O)(=O)Nc3ccc(F)cc3)cc2)CC1` [CBK268229] it is 96.2528; for `CC(Cc1nc(-c2nccn2C)cs1)n1cc(Cl)cn1` (stereo not shown) [CBK304114] it is 4.5059. The figure for `CC(=O)c1cccc(NC(=O)/C(=C\c2cccnc2)NC(=O)c2ccc(C)cc2)c1` [CBK262456] is 87.6334; for `Cc1ccccc1N1CCN(Cc2cccc(C(=O)O)c2)CC1` [CBK286890] it is 104.449; for `O=C(c1ccccc1)c1ccc(S(=O)(=O)N2CCN(Cc3ccc(O)c(F)c3)CC2)cc1` [CBK062948] it is 85.1506. For the molecule `Cc1cc(=O)oc2cc(NC(=S)N3CCN(C/C=C/c4ccccc4)CC3)ccc12` [CBK267045], the “% of control remaining” value came to 117.281. The figure for `O=C(Nc1ccccc1)O[C@@H]1CO[C@H]2[C@@H]1OC[C@@H]2NC(=O)C1CC1` [CBK289464] is 98.7415; for `Cc1ccnn1C(C)C(=O)NC(Cc1ccsc1)c1nccs1` (stereo not shown) [CBK285141] it is 93.4725. The figure for `O=C(O)CCc1nn2c3ccccc3n(CC(=O)c3cccs3)c2nc1=O` [CBK267518] is 102.517; for `CC(NC1CCN(Cc2ccccc2)CC1)C12CC3CC(CC(c4ccc(Cl)cc4)(C3)C1)C2` (stereo not shown) [CBK262877] it is 13.4131. The figure for `Cc1ccc(C)c(-c2nn(-c3ccccc3)cc2/C=C2\SC(=S)N(CC(=O)O)C2=O)c1` [CBK264541] is 107.808. For `CC(C)(C)OC(=O)NCC(N)=S` [CBK007979], the “% of control remaining” value is listed as 109.382. The figure for `CS(=O)(=O)Nc1cc2ccccc2c(-c2cccc(C(F)(F)F)c2)n1` [CBK085754] is 87.2815; for `CCOC(=O)Cn1nc([N+](=O)[O-])c(Cl)c1C` [CBK269605] it is 73.989. For `Clc1ccc(COc2nccnc2OC2CCN(Cc3ccc4c(c3)OCO4)CC2)cc1Cl` [CBK083109T], the “% of control remaining” value was 57.7432. The figure for `CN1C[C@]2(CC[C@@H](C(=O)N3CCCC3)CC2)Oc2ccccc2C1=O` [CBK284886] is 107.436; for `N=C1NC(=O)/C(=C/c2ccc(OS(=O)(=O)c3ccc4ccccc4c3)cc2)S1` [CBK263605] it is 96.7054; for `COc1ccc(NC(=O)N[C@H]2C[C@@H](c3nc(-c4ccc(OC)cc4)no3)N(C)C2)cc1` [CBK288862] it is 119.889.

Consider `CC(NC(=O)CN(c1ccc(Cl)c(Cl)c1)S(=O)(=O)c1ccccc1)c1ccccc1` (stereo not shown) [CBK263781], for which the “% of control remaining” value came out at 101.304. The figure for `Cc1ccn2cc(CNC(=O)CN3CCOc4ccccc4C3)nc2c1` [CBK307518] is 79.8334; for `CCC1C(=O)NCCN1C(=O)c1ccc2c(c1)ncn2C` (stereo not shown) [CBK281709] it is 96.8085; for `S=C(Nc1cccnc1)N[C@H]1CC[C@@]2(c3cccnc3)CCN(Cc3ccccc3)[C@H]2C1` [CBK028450] it is 103.669.

As for `Cc1cc2c(s1)c1cnn(CC(=O)NCC3CC3)c(=O)c1n2C` [CBK284222], the “% of control remaining” value is recorded as 72.4405. The figure for `Cn1nc(C(F)(F)F)cc1C1CCCCCN1S(C)(=O)=O` (stereo not shown) [CBK284673] is 99.6094; for `Nn1cnn2c(SCc3ccccc3)nnc12` [CBK263188] it is 59.0942; for `Cc1c(C(=O)N2CCC(F)(CO)C2)nnn1-c1ccc2ncccc2c1` (stereo not shown) [CBK304483] it is 107.789. With `COc1ccc(CN2C(=O)COC[C@@H]2[C@H](O)c2ccc(NC(C)=O)cc2)cc1` [CBK289674], the “% of control remaining” value stood at 124.589. The figure for `O=S(=O)(c1ccccc1)N1CCN(c2cnccn2)CC1` [CBK287839] is 89.3691; for `COCCCN(Cc1ccc(F)c(F)c1)Cc1ccccn1` [CBK282961] it is 118.327. Regarding `COCCn1c(CN2Cc3ccc(Cl)cc3C2=O)nnc1[C@H]1C[C@@H](N)C1` [CBK307289], the “% of control remaining” value is 50.6538. Take `O=c1[nH]nc2ccc(S(=O)(=O)N3CCCCC3)cn12` [CBK288459]: the “% of control remaining” value was 71.6627. Take `Cc1ccc(CNC(=O)Cn2nnc(-c3ccc(CNCC(F)(F)F)cc3)n2)cc1` [CBK153204T]: the “% of control remaining” value is on record as 78.5375. Take `Oc1cccc2ccc(/C=N/N=C/c3ccc4cccc(O)c4n3)nc12` [CBK261127]: the “% of control remaining” value is 110.687.

For the molecule `CC(C)CCNC(=O)N1CCC(C(=O)O)CC1` [CBK156075], the “% of control remaining” value was found to be 93.3498. With `COc1ccc(C(=O)NC(=S)Nc2ccc(O)c(-c3nc4cc(C)c(C)cc4o3)c2)cc1[N+](=O)[O-]` [CBK264039], the “% of control remaining” value is 87.6161. The figure for `O=C(CO)N1CC2(CCN(Cc3ccc4ccccc4c3)CC2)c2ccccc21` [CBK131501] is 74.7656.

On to `Cc1cc(C=O)c(O)c(/C=N/CC/N=C/c2cc(C)cc(C=O)c2O)c1` [CBK262149], for which the “% of control remaining” value is on record as 100.224. The figure for `c1ccc2c(-c3ccc(OC4CCNCC4)cc3)cncc2c1` [CBK126578] is 91.214; for `CCCN1CCN(C(=O)c2cnc(C)cn2)C(Cc2cccc(-c3cccs3)c2)C1=O` (stereo not shown) [CBK285678] it is 85.5589; for `NS(=O)(=O)c1ccc(NC(=O)/C=C/c2cccc([N+](=O)[O-])c2)cc1` [CBK261616] it is 98.1001. On to `N#C/C(=C\c1ccc(-c2ccc(S(N)(=O)=O)cc2)o1)c1nc2ncc(Br)cc2[nH]1` [CBK266288], for which the “% of control remaining” value is reported as 138.176. Regarding `Cc1ccn2cc(-c3ccc4c(c3)CCN4S(C)(=O)=O)cc2c1` [CBK285252], the “% of control remaining” value turned out to be 108.437. As for `O=C(c1ccc(F)cc1)N1CCN(c2ccc(Nc3ccncc3)nn2)CC1` [CBK287836], the “% of control remaining” value is 93.8898.
